Test results from PubChem BioAssay AID1159614 (National Center for Advancing Translational Sciences (NCATS), 2016).
Among all 45,000 compounds or so, about 65 (0.1%) were called active. Calls come from the whole dose curve; as a rule, active = well fitted activation curve with a large enough effect; inconclusive = small, poorly fitted or top-dose-only effect; inactive = no such curve, though single readings can be large or run the other way. This is one part of the list.

biological target: Galactocerebrosidase (Homo sapiens) (UniProt P54803); experiment: A Novel Cell-Based Assay to Identify Small Molecules for B -Galactocerebrosidase; conditions: 145M-Twi-hGALC-G270D cells (Twitcher mouse brain line with human GALC G270D), HMU-beta-Gal fluorescence, 48 h; series mostly up to 57.5 µM; activation: at the top concentration; note: 0% is about no effect; nearly all actives have a fitted effect of over 65% in size
UniProt P54803, sequence (P54803 whole entry, looked up): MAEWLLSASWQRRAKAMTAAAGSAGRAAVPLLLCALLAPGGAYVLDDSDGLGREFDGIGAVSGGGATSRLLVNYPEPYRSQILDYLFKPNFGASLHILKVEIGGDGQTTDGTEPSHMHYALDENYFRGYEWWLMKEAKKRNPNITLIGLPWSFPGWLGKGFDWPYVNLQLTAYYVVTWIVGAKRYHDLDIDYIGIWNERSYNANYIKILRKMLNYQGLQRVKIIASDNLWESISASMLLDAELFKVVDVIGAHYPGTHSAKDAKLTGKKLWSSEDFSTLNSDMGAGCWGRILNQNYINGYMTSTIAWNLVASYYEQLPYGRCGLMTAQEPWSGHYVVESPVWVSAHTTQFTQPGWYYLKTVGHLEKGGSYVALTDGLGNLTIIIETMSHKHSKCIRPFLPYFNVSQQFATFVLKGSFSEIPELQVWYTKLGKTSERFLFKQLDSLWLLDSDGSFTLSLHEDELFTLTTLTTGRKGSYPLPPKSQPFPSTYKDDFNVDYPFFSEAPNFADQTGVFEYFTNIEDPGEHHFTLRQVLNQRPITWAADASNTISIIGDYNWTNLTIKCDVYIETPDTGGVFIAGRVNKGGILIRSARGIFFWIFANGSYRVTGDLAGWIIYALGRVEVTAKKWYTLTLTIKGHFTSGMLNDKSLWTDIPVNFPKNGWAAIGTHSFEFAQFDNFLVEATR
Method in brief: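 Fluorogenic HMU-b-Gal hydrolysis (0.1 mM final, pH 5.2 citrate-phosphate with 1 mg/mL sodium taurocholate; carbonate stop buffer) measures mutant GALC activity after compound treatment of live 145M-Twi Twitcher brain cells stably carrying human GALC-G270D, with wild-type GALC line alongside; activation sought.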

| Compound | activation |
| --- | --- |
| CCOc1ccccc1CNS(=O)(=O)c1ccc2c(c1)CCCN2C(C)=O | inactive: -13.1% |
| Cc1ccc(-c2nc3cc(C(C)C)ccc3o2)cc1NC(=O)c1cc2ccccc2o1 | inactive: 0.936% |
| CCc1ccc(CNC(=O)c2sc3ncccc3c2-n2c(C)ccc2C)cc1 | inactive: -44.4% |
| Cc1ccc(CN2CCc3nc(N4CCN(c5ncccn5)CC4)ncc3C2)cc1 | inactive: -25.9% |
| Cc1ccc(C)n1-c1nnc(N2CCCC(C(=O)NCc3ccc(Cl)cc3)C2)s1 (stereo unspecified) | inactive: -28.9% |
| Cc1ccc(OCC(=O)Nc2ccc(S(=O)(=O)Nc3cc(C)nc(C)n3)cc2)c(Br)c1 | inactive: 1.75% |
| Cc1cccc(NC(=O)C(=O)NCC(c2ccc3c(c2)OCO3)N2CCOCC2)c1C (stereo unspecified) | inactive: -2.39% |
| COc1ccccc1-c1nc2c(c(SCc3cccc(Cl)c3)n1)Cc1c(CO)cnc(C)c1O2 | inactive: -18.2% |
| CCOC(=O)c1ccccc1NC(=O)N1CCc2c(sc(C)c2CC)C1c1ccccc1 (stereo unspecified) | inactive: -20.6% |
| COc1cc(OC)cc(C(=O)Oc2c(Sc3ccccc3)c(C)nn2C(C)(C)C)c1 | inactive: -18% |
| Cc1cn2c(=O)cc(COC(=O)c3cccc(NC(=O)COc4ccccc4Cl)c3)nc2s1 | inactive: -24.4% |
| CCc1ccc(C2c3c(-c4ccccc4O)n[nH]c3C(=O)N2Cc2ccncc2)cc1 (stereo unspecified) | inactive: -11.3% |
| CC(C)CCNC(=O)CCCN1C(=O)c2ccccc2Sc2ncccc21 | inactive: -6.6% |
| COc1cc(-c2noc(CN3CCN(c4ccccc4)CC3)n2)cc(OC)c1OC | inactive: -8.83% |
| CCOc1ccc(-n2c(Cc3ccccc3)nnc2SCc2nc(-c3ccccc3OC)no2)cc1 | inactive: -9.08% |
| CN1CCN(C(CNC(=O)c2cccc(F)c2)c2ccc3c(c2)OCO3)CC1 (stereo unspecified) | inactive: -12.3% |
| Cc1ccc(Cl)cc1N1CCN(C(=O)c2cnc(N3CCOCC3)c3ccccc23)CC1 | inactive: -0.755% |
| O=C(Nc1cccs1)Nc1cc(C(F)(F)F)ccc1Cl | inactive: -8.4% |
| Cc1cc(C)c(NC(=O)C2CCN(c3nc4ccccc4[nH]3)CC2)c(C)c1 | inactive: -8.64% |
| Cc1ccc(C)c(CSc2c(C(C)C)cnc3c2c(=O)n(C)c(=O)n3C)c1 | inactive: -20.5% |
| CN1CCN(C(=O)c2cnn(-c3cccc(F)c3)c2C2CCN(C(=O)OC(C)(C)C)CC2)CC1 | inactive: 3.02% |
| Cc1cc2c(cc1NC(=O)c1ccc(C(C)(C)C)cc1)n(C)c(=O)c(=O)n2C | inactive: -7.38% |
| CC(C)c1ccc(CNc2nc(-c3ccco3)nn2S(=O)(=O)c2ccccc2)cc1 | inactive: -1.55% |
| CCOc1ccccc1CNC(=O)c1nn(C)c2c1CS(=O)(=O)c1ccccc1-2 | inactive: -14.3% |

| Compound | activation |
| --- | --- |
| CCOc1ccc(/C=C/c2nc(C#N)c(N(C)C)o2)cc1 | inactive: -13.8% |
| Cc1csc2nc(COc3ccc(NC(=O)COc4ccc(F)cc4)cc3)cc(=O)n12 | inactive: -9.53% |
| Cc1ccc(NC(=O)Cn2cc(S(=O)(=O)N3CCN(c4ccccc4F)CC3)c3ccccc3c2=O)cc1F | inactive: -16.2% |
| COc1ccc(N2CCN(C(CNC(=O)c3ccc(C)cc3)c3ccc4c(c3)OCO4)CC2)cc1 (stereo unspecified) | inactive: -6.99% |
| COC(=O)c1cc(S(=O)(=O)N2CCN(c3ccc(C)cc3C)CC2)cn1C | inactive: -5.9% |
| Cc1sc(-c2cc3ccccc3oc2=O)nc1-c1ccc(Cl)cc1 | inactive: 2.92% |
| COc1ccc(NC(=O)c2sc3nc[nH]c(=O)c3c2C)cc1 | inactive: -22.3% |
| Cc1ccc(-c2cc(C(=O)Oc3ccccc3)c3cccc(C)c3n2)cc1 | inactive: -11.7% |
| COc1ccc(-c2noc(-c3ccc(N4CCCCC4)c([N+](=O)[O-])c3)n2)cc1 | inactive: -5.62% |
| O=C1CN(C(=O)C2CCCCC2)C(c2ccccc2)c2cc(F)ccc2N1 (stereo unspecified) | inactive: -23.8% |
| CCOc1ccc(C2c3c(oc4ccc(C)cc4c3=O)C(=O)N2c2nc(C)c(C)s2)cc1OC (stereo unspecified) | inactive: -17.3% |
| CCOC(=O)c1cnc2ccc(OCC)cc2c1N1CCN(c2cccc(Cl)c2)CC1 | inactive: -21.8% |
| COC(=O)c1ccccc1NC(=O)Nc1cccc(OCc2cc(=O)n3cccc(C)c3n2)c1 | inactive: 28.9% |
| CCCCCCOc1ccc(-c2nc3ccc(Br)cc3c(=O)o2)cc1 | inactive: -2.33% |
| O=C1CC(c2ccccc2)Cc2[nH]c(=O)c(-c3nc(-c4ccc(F)cc4)cs3)cc21 (stereo unspecified) | inactive: -7.47% |
| Cc1ccccc1-c1nc(CS(=O)CC(=O)NCCc2ccc(Cl)cc2)c(C)o1 (stereo unspecified) | inactive: -10.5% |
| O=C(CN1C(=O)COc2ccc(S(=O)(=O)N3CCCC3)cc21)N1CCN(c2ccccc2F)CC1 | inactive: 6.39% |
| CC(C)Oc1ccc(CNC(=O)C2COc3ccccc3C2)cc1 (stereo unspecified) | inactive: -10.4% |
| Cc1cc(NC(=O)C2CCCN(S(=O)(=O)c3ccc(Br)s3)C2)ccc1Br (stereo unspecified) | inactive: 0.153% |
| COc1ccc(CC(=O)Nc2ccc(-c3nc4ccccc4s3)cc2Cl)cc1 | inactive: 10.6% |
| Cc1cc(OCC(=O)NCC2(N(C)C)CCCCC2)cc(C)c1Cl | inactive: -6.36% |
| Cc1ccc(CCNC(=O)CN2C(=O)COc3ccc(S(=O)(=O)N4CCC(C)CC4)cc32)cc1 | inactive: -15.7% |
| CCN1CCN(C(c2cccc(Cl)c2)c2c(O)cc(C)n(CCOC)c2=O)CC1 (stereo unspecified) | inactive: -18% |
| Cc1ccc(-c2nnc(SCC(=O)NCCC(C)C)nc2-c2ccc(C)cc2)cc1 | inactive: -0.386% |

| Compound | activation |
| --- | --- |
| CCn1cc(C(=O)NCCCN(CC(C)C)CC(C)C)c(=O)c2cc(S(=O)(=O)N3CCc4ccccc4C3)ccc21 | inactive: -17% |
| COc1cccc(C2=NS(=O)(=O)N(C)C(C(=O)Nc3cccc(O)c3)=C2)c1 | inactive: -12.7% |
| CCCN(CCC)c1nn2c(=O)c(C(=O)NCc3cccc(OC)c3)cnc2s1 | inactive: -19.8% |
| Cc1cc2nn(-c3ccc(F)cc3)nc2cc1NC(=O)c1cc(Cl)ccc1Cl | inactive: -15.3% |
| CCCCN1C(=O)C(O)(c2c(C)[nH]c3ccccc23)c2cc(Br)ccc21 (stereo unspecified) | inactive: -12.4% |
| O=C(NCc1ccccc1)C(=O)NCC(c1ccco1)S(=O)(=O)c1ccccc1 (stereo unspecified) | inactive: -17.3% |
| CCc1ccc(NC(=O)N(Cc2c[nH]c3ccccc23)C2CCCCCC2)cc1 | inactive: -21.1% |
| COc1ccc(N2CCN(C(CNC(=O)C(=O)NCc3ccc(F)cc3)c3cccnc3)CC2)cc1 (stereo unspecified) | inactive: -4.55% |
| COc1ccc(Cl)cc1NC(=O)CSc1nnc(C)n2c1cc1occc12 | inactive: -15.6% |
| O=S(=O)(NCCc1csc(-c2ccc(F)cc2)n1)c1ccc(F)cc1F | inactive: -8.36% |
| COc1ccc(N2CC(NC(=O)c3cccs3)CC2=O)cc1OC (stereo unspecified) | inactive: 16.8% |
| O=C(Nc1nnc(S(=O)(=O)N2CCCCC2)s1)c1ccc(Cl)cc1 | inactive: -19.5% |
| CC(=O)Nc1ccc(NS(=O)(=O)c2ccc3c(c2)CCCN3C(C)=O)cc1 | inactive: -16.5% |
| CCc1ccc(-c2[nH]c3c(c2-c2c(-n4cccc4)n(C)c(=O)[nH]c2=O)c(=O)[nH]c(=O)n3C)cc1 | inactive: -6.98% |
| COc1ccc(-n2ncc(C(=O)Nc3ccc(C)cc3Cl)c2C2CCN(C(=O)OC(C)(C)C)CC2)cc1 | inactive: -5.55% |
| Cc1cccc(C)c1NC(=O)C1CCCN(S(=O)(=O)c2c(C)noc2/C=C/N(C)C)C1 (stereo unspecified) | inactive: -14.2% |
| COc1ccccc1CNC(=O)c1ccc(NC(=O)N2CC(C)Sc3ccccc32)cc1 (stereo unspecified) | inactive: -18.9% |
| CCOc1ccc(-c2cn3c(n2)sc2cc(C(=O)NCCC4=CCCCC4)ccc23)cc1 | inactive: -12% |
| CCOc1ccc(NC(=O)CSc2nnc(CC)c(CC)n2)cc1 | inactive: 0.711% |
| CCN(CC)CCNC(=O)C1CCCN(c2nnc(C)c3c(C)n(-c4ccc(Cl)cc4)nc23)C1 (stereo unspecified) | inactive: -13.6% |
| COc1ccc(S(=O)(=O)NCC(c2ccco2)S(=O)(=O)c2ccc(C)cc2)cc1C (stereo unspecified) | inactive: -15.9% |
| CCOC(=O)c1cc(-c2ccc(C)cc2)n(CCC(=O)NCc2ccccc2)c1C | inactive: -17.5% |
| COC(=O)c1ccc(NC(=O)CSc2ccc(-c3cccs3)nn2)cc1 | inactive: -25.9% |
| Cc1cccc(OCC(=O)Nc2ccc(C(=O)OCc3cc(=O)n4nc(C5CC5)sc4n3)cc2)c1 | inactive: -6.05% |

| Compound | activation |
| --- | --- |
| Cc1ccc(-c2nc3scc(CCNS(=O)(=O)c4ccc(C)c(C)c4)n3n2)cc1 | inactive: -8.1% |
| Cc1ccc(-c2noc(-c3cccnc3NCc3ccc(Cl)cc3)n2)cc1 | inactive: -17.8% |
| C#CCOc1ccc(C2C(C(=O)OC)=C(C)NC3=C2C(=O)c2ccccc23)cc1OCC (stereo unspecified) | inactive: -8.89% |
| CCOc1ccc(Sc2cc(C(=O)NCCCOC)c3ccccc3n2)cc1 | inactive: -13.4% |
| Cc1cc(C)c(NC(=O)c2cc(CN3CCOCC3)on2)c(C)c1 | inactive: -16.8% |
| CCc1ccc(NC(=O)C(Cc2ccccc2)NS(=O)(=O)c2ccc3c(c2)CCN3C(C)=O)cc1 (stereo unspecified) | inactive: -11% |
| CCCc1ncc(C[n+]2ccccc2C)c(N)n1 | inactive: -3.67% |
| COc1ccc2cc(S(=O)(=O)c3ccccc3F)c(=O)oc2c1 | inactive: -4.8% |
| COc1ccc(-n2c(-c3ccc(F)cc3)cn3c4c(=O)n(C)c(=O)n(C)c4nc23)cc1 | inactive: -9.5% |
| CCOc1ccc2ncc3c(-c4ccccc4)nn(CC(=O)Nc4cccc(F)c4)c3c2c1 | inactive: -12.9% |
| Cc1ccc(C)c(N2CCN(CCCNC(=O)Cn3c(-c4cccs4)cc4ccccc43)CC2)c1 | inactive: -4.82% |
| O=C(Cn1c(=O)oc2ccccc21)NCc1ccccc1Cl | inactive: -13.2% |
| O=C(CSc1nc2c(c(=O)[nH]1)CCCC2)Nc1cccc(O)c1 | inactive: -11.4% |
| COCCCNC(=O)C1CCN(c2nnc(-n3cccc3CNc3ccc(C)cc3)s2)CC1 | inactive: -8.54% |
| Cc1cc(OCCn2c(C3CC(=O)N(Cc4ccc(F)cc4)C3)nc3ccccc32)ccc1Cl (stereo unspecified) | inactive: -29.4% |
| COc1cc2[nH]c(=O)n(CCCC(=O)NCc3ccccc3Cl)c(=O)c2cc1OC | inactive: -14.3% |
| CCCn1cc(S(=O)(=O)c2cccc(Cl)c2)c(=O)c2cc(F)c(N3CCN(CC)CC3)cc21 | inactive: -11.1% |
| COc1ccccc1CNC(=O)Cn1c(=O)oc2ccccc21 | inactive: -11.2% |
| COc1cc(C(=S)N2CCOCC2)ccc1O | inactive: -15.4% |
| COc1ccccc1CNc1nc(-c2ccco2)nn1C(=O)c1ccccc1[N+](=O)[O-] | inactive: -13% |
| CCCCn1c(CCNC(=O)c2ccc(F)cc2)nc2ccccc21 | inactive: -5.05% |
| COc1ccc(-c2cc(C(F)(F)F)nc(S(=O)(=O)CCCC(=O)Nc3ccccc3C(F)(F)F)n2)cc1OC | inactive: -19.8% |
| COc1ccc(S(=O)(=O)N2Cc3ccccc3CC2C(=O)Nc2cccc(C)c2)cc1OC (stereo unspecified) | inactive: -17.7% |
| COc1cccc(CNC(=O)Cn2cc3c(n2)-c2c(oc(C(=O)N4CCOCC4)c2C)CC3)c1 | inactive: -5.56% |
